Screen size: about 310,000 compounds; about 2,200 (0.71%) showed an effect of 50% or more. Effects have a minus sign here. Some of the results follow.
These compounds were tested against human ether-à-go-go-related gene (hERG) potassium channel (human, UniProt Q12809) (assay: primary screen, population patch clamp on CHO cells stably expressing hERG).
Chain of human ether-à-go-go-related gene (hERG) potassium channel (Q12809 whole entry, looked up): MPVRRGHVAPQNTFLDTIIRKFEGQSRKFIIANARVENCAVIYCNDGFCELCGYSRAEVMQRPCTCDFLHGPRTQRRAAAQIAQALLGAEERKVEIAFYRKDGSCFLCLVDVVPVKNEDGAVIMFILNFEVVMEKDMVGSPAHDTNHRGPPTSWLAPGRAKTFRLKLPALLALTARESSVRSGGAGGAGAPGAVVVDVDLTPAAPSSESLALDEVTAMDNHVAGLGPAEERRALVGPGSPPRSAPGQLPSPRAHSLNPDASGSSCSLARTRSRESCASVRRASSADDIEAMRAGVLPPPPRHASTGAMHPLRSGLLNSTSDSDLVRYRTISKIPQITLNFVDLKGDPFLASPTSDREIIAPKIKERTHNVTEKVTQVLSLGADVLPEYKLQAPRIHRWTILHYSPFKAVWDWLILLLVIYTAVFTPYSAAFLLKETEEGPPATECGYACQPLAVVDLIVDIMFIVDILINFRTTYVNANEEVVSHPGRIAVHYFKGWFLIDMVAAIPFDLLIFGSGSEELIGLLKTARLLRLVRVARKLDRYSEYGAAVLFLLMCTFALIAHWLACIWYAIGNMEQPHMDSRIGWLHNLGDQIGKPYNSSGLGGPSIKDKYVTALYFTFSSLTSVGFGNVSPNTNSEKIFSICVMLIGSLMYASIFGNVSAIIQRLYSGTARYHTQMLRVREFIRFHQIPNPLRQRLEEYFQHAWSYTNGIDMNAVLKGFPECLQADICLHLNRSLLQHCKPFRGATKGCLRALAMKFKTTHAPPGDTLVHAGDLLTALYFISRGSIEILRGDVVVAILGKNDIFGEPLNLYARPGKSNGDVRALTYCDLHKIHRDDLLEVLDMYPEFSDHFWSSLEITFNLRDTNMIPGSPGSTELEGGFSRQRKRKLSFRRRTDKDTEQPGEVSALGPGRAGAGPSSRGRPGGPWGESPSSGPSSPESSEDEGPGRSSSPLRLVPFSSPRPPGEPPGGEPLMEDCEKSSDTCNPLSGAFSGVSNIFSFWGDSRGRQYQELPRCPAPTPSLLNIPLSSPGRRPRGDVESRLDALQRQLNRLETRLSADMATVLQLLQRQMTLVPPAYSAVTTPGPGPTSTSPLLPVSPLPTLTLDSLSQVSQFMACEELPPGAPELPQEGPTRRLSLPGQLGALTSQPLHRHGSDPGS

Row | SMILES | hERG current change (%, negative = inhibition) at 1uM [%]
1 | N#CC1(c2ccccc2)CCC(NCCc2ccccc2)CC1.O=C(O)C(=O)O (stereo not drawn) | -23
2 | CCc1ccc(CN2C(=O)c3ccccc3C2C(=O)NCc2cccnc2)cc1 (stereo not drawn) | 6.43
3 | CN1CCN(C(=O)C2CC(c3ccc(F)cc3)=NO2)CC1 (stereo not drawn) | 2.24
4 | CC(=O)Nc1ccc(NC(=O)Cn2c(CC(=O)N3CCCC3)nc3ccccc32)cc1 | 6.65
5 | Cc1[nH]nc(-c2ccc(OCc3cnn(-c4ccccc4)c3)c(C)c2O)c1Oc1ccccc1 | 8.49
6 | Cn1c(=O)[nH]c(=O)c2c1nc(N1CCCCCC1)n2CCN1CCCCCC1 | 9.41
7 | C#CCOC(=O)/C(=C/C=C/c1ccccc1)NC(=O)c1ccccc1 | 1.57
8 | Cc1cc(C(C)(C)C)cc(S(=O)(=O)Nc2ccc(C(=O)O)cc2)c1C | 12.4
9 | O=C(Nc1ncc([N+](=O)[O-])s1)C1COc2ccccc2O1 (stereo not drawn) | 19.9
10 | CCOC(=O)c1sc(NS(=O)(=O)c2ccc(F)cc2)nc1C | 10
11 | CC1CC(C)(C)NC(=S)N1CCC(=O)NCCc1ccc(Cl)cc1 (stereo not drawn) | 8.3
12 | CCOc1cccc(-c2nc(C(N)=O)c3[nH]c(=O)n(-c4cccc(Cl)c4)c3n2)c1O | 17.5
13 | O=C(NC1CCN(Cc2ccccc2)CC1)c1cccc(S(=O)(=O)Nc2ccc(Br)cc2)c1 | 3.68
14 | CCCOc1ccc2ccccc2c1/C=C1\SC(=O)NC1=O | 9.43
15 | O=C(Nc1nc(-c2ccccn2)cs1)c1ccc(-c2ccccc2F)o1 | 10.5
16 | O=C(CC1SC(=Nc2ccc(O)cc2)NC1=O)Nc1ccccc1 (stereo not drawn) | 3.55
17 | NC(=O)CN1CCCC1=O | 5.39
18 | COCCN(C(=S)Nc1ccc(C)cc1)C(C)c1cccnc1 (stereo not drawn) | 8.02
19 | Cc1ccc2c(c1)C(=O)C(=O)N2CCCOc1ccccc1C | 4.6
20 | CN(C)CCOC(=O)C12CC3CC(CC(C3)C1)C2.Cl | 12.2
21 | COC(=O)CN=C1OC(=O)N2C(=O)C3=C4[C@@H](C[C@H]5C(=O)N(c6ccccc6)C(=O)[C@H]5[C@H]4[C@@]12Cc1ccccc1)[C@H]1C(=O)N(c2ccccc2)C(=O)[C@H]1[C@H]3C | 8.66
22 | COc1ccc(CCn2c(O)c(C=NC3CC3)c(=O)[nH]c2=O)cc1OC | 13.4

Row | SMILES | hERG current change (%, negative = inhibition) at 1uM [%]
23 | COc1ccc(N2CCN(C(=O)COc3ccc(Cl)cc3Cl)CC2)cc1 | -4.88
24 | CCOC(=O)C1=C(C)N=C2SCCC(=O)N2C1c1ccc(C(=O)OC)cc1 (stereo not drawn) | 3.06
25 | O=C(Nc1ccn(Cc2ccc(Cl)cc2)n1)c1ccccc1 | -8.06
26 | CC(=O)c1ccc(N(C(=O)CNC(=O)c2cccs2)C(C(=O)NCC2CCCO2)c2ccccc2)cc1 (stereo not drawn) | 12.4
27 | COc1ccc(C(=O)NCS(=O)(=O)c2ccc(C)cc2)cc1 | -3.34
28 | Cc1ccccc1OCc1nnc(SCC(=O)Nc2ccc3c(c2)OCO3)n1C | 10
29 | CC1CCN(c2c([N+](=O)[O-])c(=O)n(-c3ccccc3)c3ccccc23)CC1 | 12.1
30 | O=C(CN1C(=O)c2ccccc2S1(=O)=O)NC1CCCCC1 | 0.655
31 | CCC1OC23CCCCC2C(C#N)(C(=N)O3)C1(C#N)C#N (stereo not drawn) | 15.9
32 | CCOC(=O)c1c(C)[nH]c(C(=O)CN2CCOCC2)c1C | 2.15
33 | CC1CN(Cc2nc3ccccc3c(=O)[nH]2)CC(C)O1 (stereo not drawn) | 8.38
34 | Oc1ccc(Cl)cc1N=Cc1sc2ccccc2c1Cl | 14.7
35 | Cc1ccc(NC(=O)C(C)Sc2nc(-c3ccccc3)cc(=O)[nH]2)cc1 (stereo not drawn) | 12.3
36 | Cc1cccnc1NC(=O)CNC(=O)C1CCCCC1 | 15.6
37 | CCOC(=O)Cc1c[nH]c2ccccc12 | 14.8
38 | Cc1ccc(Cn2c(SCC(=O)N3CC(=O)Nc4ccccc43)nc3ccccc3c2=O)cc1 | -8.74
39 | CCCCCOC(=O)c1ccc(N2C(=O)C3C4C=CC(C4)C3C2=O)cc1 (stereo not drawn) | 7.24
40 | COc1ccc2c(c1)S/C(=C\C(=O)c1ccncc1)N2C | -2.04
41 | O=C(COc1cc(F)ccc1[N+](=O)[O-])N1N=C(c2cccs2)CC1c1ccco1 (stereo not drawn) | -1.45
42 | O=C(CCNC(=O)c1ccccc1Cl)Nc1cccc(S(=O)(=O)N2CCOCC2)c1 | 5.13
43 | Cn1nc(-c2ccccc2)c(CSc2ccccc2Cl)c1Cl | 4.19
44 | O=C(c1ccc(S(=O)(=O)N2CCOCC2)cc1)N1CCN=C1SCc1cccnc1 | 8.77

Row | SMILES | hERG current change (%, negative = inhibition) at 1uM [%]
45 | Cl.Oc1cccc(Nc2nc(-c3ccccc3Cl)nc3ccccc23)c1 | 12.1
46 | CC(C)Cc1nc2c(nnn2Cc2ccccc2F)c(=O)[nH]1 | 1.08
47 | O=C1N=C(N2CCCCC2)S/C1=C\c1cn[nH]c1-c1ccccc1 | 4.92
48 | CCCCCN(C(=O)CCC(=O)OC(C)C(=O)c1ccccc1)c1c(N)n(CCCC)c(=O)[nH]c1=O (stereo not drawn) | 5.07
49 | Cc1nc2nc(SCC(=O)NCCCN3CCOCC3)nn2c(C)c1Cc1ccccc1 | 5.83
50 | Clc1ccc(-c2nnc(SCc3nc4ccccc4s3)o2)cc1 | 5.49
51 | COc1ccc(OC)c(S(=O)(=O)N2CCN(c3ncccn3)CC2)c1 | 4.85
52 | C/C=C(\C)CN1CCN(c2cccc(C)c2C)CC1 | 12
53 | O=C(Cn1ccc2ccccc2c1=O)NCC(=O)N1CCN(c2ccccc2F)CC1 | 17.8
54 | C=C(c1ccccc1)c1ccc(N(C)C)cc1 | 13.6
55 | O=C(O)c1ccc(S(=O)(=O)N(Cc2ccc(F)cc2)C2CCCCC2)cc1 | 13
56 | O=C(CN1CCc2ccccc21)Nc1ccc2c(c1)OCCCO2 | 0.584
57 | O=C(Nc1nnc(-c2ccc(Br)cc2)o1)c1cccc(N2C(=O)CCC2=O)c1 | 14.9
58 | COc1ccc(C(=O)CN2C(=O)COc3ccccc32)cc1 | -4.39
59 | O=C(NCCCN1CCCC1=O)NC12CC3CC(CC(C3)C1)C2 | 12.2
60 | CCOc1cnc(-c2ccc(Cl)cc2)o1 | 6.76
61 | CCCCOC(=O)c1ccc(NC(=O)C(=O)NCc2ccco2)cc1 | 9.45
62 | CC(OC(=O)Cc1ccccc1[N+](=O)[O-])C(=O)NC(=O)NC1CCCCC1 (stereo not drawn) | 11.3
63 | CC(=O)Nc1ccc(C(=O)N(C2=NC(C)CS2)c2ccc(Cl)cc2)cc1 (stereo not drawn) | 16.8
64 | CCOc1ccc(S(=O)(=O)N(C)CC(=O)NCCN2CCOCC2)cc1 | 12.1
65 | Cc1cccc(C)c1NC(=O)CNC(=O)C(C)N1CCN(c2cccc(Cl)c2)CC1 (stereo not drawn) | 0.101
66 | O=C(CCS(=O)(=O)c1cccc2nonc12)NCc1ccc(Cl)cc1 | 6.25

Row | SMILES | hERG current change (%, negative = inhibition) at 1uM [%]
67 | CCN1CCCC1Cn1cnc2c([nH]c3ccc(OC)cc32)c1=O (stereo not drawn) | -58.5
68 | COC(=O)NN=C1CCC(c2ccccc2)CC1 (stereo not drawn) | 12.2
69 | COc1ccc(C(c2nnnn2CC2CCCO2)N2CCN(c3ccccc3)CC2)cc1 (stereo not drawn) | 11.3
70 | COC(=O)c1cc(NC(=O)c2cccs2)ccc1N1CCOCC1 | 11.2
71 | COC(=O)c1ccc2c(=O)n(Cc3ccc(C(=O)NC4CCCC4)cc3)c(=S)[nH]c2c1 | -2.9
72 | COc1cc(CN2CCSCC2)cc(OC)c1OC | 5.13
73 | N/C(=N\OC(=O)c1ccco1)c1ccc(Br)cc1 | 8.69
74 | O=C(COC(=O)c1ccc(Br)o1)NCCCc1ccccc1 | 7.32
75 | CCOC(=O)N1CCN(Cc2nc(-c3ccc(C)cc3)no2)CC1 | -10.7
76 | Nc1ncnc2c1ncn2C1O[C@H](CO)[C@@H](O)[C@@H]1O (stereo partly drawn) | 3.34
77 | CN1C2CCC1CC(NC(=O)CSc1ccc(Cl)cc1)C2 (stereo not drawn) | 9.33
78 | COc1ccc(CNS(=O)(=O)c2ccc3c(c2)C(C)(C)C(=O)N3C)cc1 | 8.45
79 | COc1cc(C2N(c3cccc(Cl)c3)C(=O)C3CCCN32)cc(OC)c1OC (stereo not drawn) | 7.5
80 | O=C1c2ccccc2C(=O)N1Nc1ccccc1 | 2.53
81 | CCN(CC)S(=O)(=O)c1ccc(C)c(NC(=O)/C=C/c2cccs2)c1 | 8.76
82 | CCOC(=O)c1ccc(NC(=O)CN2C(=O)CN(C(C)=O)C2=S)cc1 | 12.5
83 | CC(C)CCNC(=O)C(Cc1ccccc1)NS(=O)(=O)c1ccc2c(c1)c(=O)n(C)c(=O)n2C (stereo not drawn) | 5
84 | Clc1ccc(Cn2cc(/C=N/n3cnnc3)c3ccccc32)c(Cl)c1 | 13.1
85 | Cc1ccc(C(=O)Nc2nccs2)cc1S(=O)(=O)N1CCCCC1 | 6.61
86 | Cc1c(Cl)cccc1NC(=O)CNc1ccccc1F | 11
87 | COc1ccc([C@@H]2[C@@H]3C(=O)N(C(C)(C)C)C(=O)[C@@H]3[C@]3(Cc4ccccc4)C(=O)N(c4cccc(Cl)c4)C(=O)N23)cc1 | 6.54
